Test results reported in ChEMBL document CHEMBL1201862, “PubChem BioAssay data set” (2004).
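Each compound was tested at five concentrations against cells in 96-well plates for 48 hours. The concentration for 50% growth inhibition is given as GI50.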 Calls of active or inactive are those of the source. No stated cut-off is given here; in the data, active = GI50 up to about 1.1 µM and inactive = higher.

Test system: NCI-H322M
Experiment: DTP human tumour cell line panel, 48 h

SMILES	GI50
C[C@]12CCC(=O)C=C1CC[C@@H]1C2CC[C@@]2(C)C1CC[C@@H]2OC(=O)C12OC1CCC2=O (some centres undefined)	inactive: 26.2 µM
CCCCCCCCCCCCCCCCCC(=O)O[C@H](COC(=O)CCCCCCCCCCC)COC(=O)CCCCCCCCCCCCCCC	inactive: > 100 µM
O=C1OC(=O)c2c1c(-c1ccccc1)cn2-c1ccc(Cl)cc1	inactive: > 100 µM
CCC12CCCNC1c1c(n(C)c3ccccc13)C(C(=O)OC)C2 (centres undefined)	inactive: 75.3 µM
CCC(Cc1cnc2nc(N)nc(N)c2n1)c1ccc(C(=O)NC(CCC(=O)O)C(=O)O)cc1 (centres undefined)	active: 0.014 µM
CCN(CC)CCn1c2ccccc2c(=O)c2c(OC)ccc(OC)c21	inactive: 52.1 µM
CCOC(=O)C(O)(C(=O)OCC)c1cc(C(C)(C)C)c(O)c(C(C)(C)C)c1	inactive: 74.1 µM
CCCCCCCCCCCCCCCCOC[C@@H](COC(c1ccccc1)(c1ccccc1)c1ccccc1)O[PH](=S)OC (some centres undefined)	inactive: 2.9 µM
O=C(NC(CS)C(=O)O)c1c2ccccc2nc2ccccc12 (centres undefined)	inactive: 60 µM
CNc1ccc2ncccc2c1[N+](=O)[O-]	inactive: > 100 µM
Cn1c(=O)c2c(nc3sc4c(n32)C(=O)c2c(O)ccc(O)c2C4=O)n(C)c1=O	inactive: 23 µM
COc1ccc2c(CC(=O)O)cc(=O)oc2c1	inactive: > 100 µM
COC(=O)c1cc(CNCCc2c[nH]c3ccccc23)on1	inactive: > 100 µM
CC(=O)Nc1cccc(N2C(=O)/C(=C\c3cccc(Oc4ccccc4)c3)S(=O)(=O)C2c2ccccc2)c1 (centres undefined)	inactive: > 100 µM
CN(C)CCCNc1ccc2ncn3c4ccc(O)cc4c(=O)c1c23	inactive: 1.97 µM
CCOC(=O)c1nc2c(Cl)c3ncccc3cc2[nH]c1=O	inactive: 27.2 µM
CCOc1ccccc1NC(=O)CC1Sc2ccccc2NC1=O (centres undefined)	inactive: > 100 µM
CC1=CC2C(=O)N(c3ccccc3)C(=O)C2CC1n1[nH]c(=O)n(Cc2ccccc2)c1=O (centres undefined)	inactive: > 100 µM
COc1ccc(/C=C2\CCC(CNc3cc(C)on3)C2=O)cc1 (centres undefined)	inactive: > 100 µM
CO[C@H]1C[C@H](O[C@H]2CC[C@]3(C=O)[C@H]4CC[C@]5(C)[C@@H](C6=CC(=O)OC6)CC[C@]5(O)[C@@H]4CC[C@]3(O)C2)O[C@H](C)[C@H]1O[C@@H]1O[C@H](CO[C@@H]2O[C@H](CO)[C@@H](O)[C@H](O)[C@H]2O)[C@@H](O)[C@H](O)[C@H]1O	active: 0.0356 µM
COc1cccc2c3cccc(OC)c3c3[nH]cnc3c12	inactive: 3.6 µM
CCCCCC/C(CC(=O)CCC(=O)NCCc1ccccc1)=N\NC(=O)c1ccc2ccccc2c1O	inactive: 42.3 µM

SMILES	GI50
Cc1ccc(NC(=O)/C(CC(=O)c2c[n+]([O-])c3ccccc3[n+]2[O-])=N\NC(=O)C[n+]2ccccc2)cc1	inactive: > 100 µM
COC(=O)/C=C(/C(=O)OC)c1c(C)c(C)c2c(C)cc(C)cc(C)c1-2	inactive: 47.8 µM
O=c1[nH][nH]c(=O)c2c1ccc1oc3ccccc3c12	inactive: > 100 µM
COc1ccc(Oc2ccc3cc4c(cc3c2O)OCO4)c2cc(C)oc12	inactive: 61.4 µM
O=C1CSC(=S)N1/N=C/c1ccc(Cl)c([N+](=O)[O-])c1	inactive: 37 µM
O=C1C=CC2(C=C1)O[C@H](CCc1ccccc1)[C@@H](CCc1ccccc1)O2	inactive: > 100 µM
Cc1ccc(S(=O)(=O)ON2C(=O)c3cccc4cc([N+](=O)[O-])cc(c34)C2=O)cc1	inactive: 83.9 µM
CCOc1ccccc1NC(=O)C1=C(C)NC(C)=C(C(=O)Nc2ccccc2OCC)C1c1cccc([N+](=O)[O-])c1	inactive: 78.2 µM
NS(=O)(=O)c1nnc(NS(=O)(=O)c2ccc(Cl)cc2)s1	inactive: > 100 µM
COc1ccc2c(O)c1-c1c(OC)ccc(c1O)SSc1ccc(OC)c(c1O)-c1c(OC)ccc(c1O)SS2	inactive: > 100 µM
CC(O)C1(CNc2cc(Cl)nc(N)n2)CC(CCc2ccccc2)C1 (centres undefined)	inactive: 13.3 µM
COc1cccc(/C=C2/S/C(=N/Nc3nc(C)c(C(C)=O)s3)NC2=O)c1O	inactive: 48.9 µM
CC1=Nc2c(O)nc(S)nc2NC(c2ccc(Cl)c(Cl)c2)C1 (centres undefined)	inactive: > 100 µM
C=C(Br)COc1ccc2c(C)cc(=O)oc2c1	inactive: > 100 µM
CC(=O)Nc1oc(C)nc1C#N	inactive: > 100 µM
CC(C)c1cccc(C(C)C)c1NC(=S)NN=C1C=C(C(C)(C)C)C(=O)C(C(C)(C)C)=C1	inactive: 32.3 µM
COc1cc(Nc2cnc3cc(F)c(F)cc3n2)cc(OC)c1	inactive: > 100 µM
Cc1ccccc1C(=O)C1CCCCC1O (centres undefined)	inactive: > 100 µM
CCC1c2[nH]c3ccccc3c2C[C@H]2C(=O)NC(CCC(=O)OC(C)(C)C)C(=O)N12 (some centres undefined)	inactive: > 100 µM
c1ccc(Cc2nc(Cc3n[nH]c(Cc4ccccc4)n3)n[nH]2)cc1	inactive: > 100 µM
COc1cccc(C=C2N=C(C)N(n3c(-c4ccccc4)nc4ccccc4c3=O)C2=O)c1	inactive: > 100 µM
CC(C)(C)C1(O)C=C(O)C(=O)N1NC(=O)c1ccccc1Nc1ccccc1 (centres undefined)	inactive: 42.5 µM
